PubChem BioAssay AID485313 (National Center for Advancing Translational Sciences (NCATS), 2010)
In all, about 320,000 compounds went through this assay and about 7,600 (2.4%) were called active. The shares of active, inactive and inconclusive entries below differ from those in the screen. The call rests on the fitted dose curve; in most records, active means well fitted activation curve with a large enough effect; inconclusive means small, poorly fitted or top-dose-only effect; inactive means no such curve, though single readings can be large or run the other way. Potencies beside an inconclusive call are fits to weak or partial responses and may not hold up.

Assay: qHTS Assay for NPC1 Promoter Activators; further: nearly all actives have a fitted effect of over 60% in size;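 on activation: reporter is driven by a mutant NPC1 promoter; % of control where 0% means no effect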
Conditions: Huh7 NPC1 promoter luciferase reporter, 24 h; series mostly up to 9.22 µM; activation: at the top concentration
Outline: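 Huh7 reporter cells (NPC1 promoter driving luciferase) are dosed with compound for 24 h at 37 °C, 5% CO2; luciferase detection reagent is then added and luminescence measured after 10 min at ambient temperature.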
Potency means the concentration at half of the fitted maximal effect; tags describe the fitted curve by direction and shape.

Potency, inactive:
CCC(=O)NC(c1cc(Cl)c2cccnc2c1O)C(C)C (configuration not stated)

Potency, inconclusive:
COc1cn(-c2ccccc2)nc1C(=O)Nc1ccccc1 3.16 µM [activator, partial curve]
Cc1cc2nc(-c3ccc(SCc4ccc(C(=O)O)cc4)nc3)[nH]c2cc1C 5.62 µM [activator, single point]
COc1ccc(OC)c2nc3c(cc12)CCC3 4.47 µM [activator, partial curve]
COc1ccc(-c2csc(-c3cccs3)n2)cc1OC 2.82 µM [activator, partial curve]
CCCCOC(=O)Nc1ccc(C(N)=O)cc1 2.51 µM [activator, partial curve]
Cc1ccc(-c2nnc(SCC(=O)Nc3ccccc3F)o2)cc1 0.1 µM [activator, full curve]
CC(=O)c1ccc(NC(=O)CSc2nc(N)c3cc4c(nc3n2)CCCC4)cc1 3.55 µM [activator, partial curve]
C(=N\Nc1nc2ccccc2s1)/c1cccs1 3.98 µM [activator, single point]
CCOC(=O)c1ccc(-c2ccc(C(=O)Nc3cccnc3)o2)cc1 3.16 µM [activator, partial curve]
COc1ccc(-c2cn3cccc(C)c3n2)cc1F 3.55 µM [activator, single point]
Cc1ccc(NC(=O)C(=O)Nc2ccccn2)cc1 0.282 µM [activator, full curve]
Cc1c(C(=O)c2ccccc2)oc2ccc3ccccc3c12 3.98 µM [activator, single point]
Cc1ccc(CSc2ncnc3c2cnn3-c2ccc(C)cc2)cc1 5.62 µM [activator, single point]
COc1ccccc1C(=O)Nc1ccc2c3c(cccc13)CC2 3.98 µM [activator, single point]
O=C(Nc1ccccc1)c1ccc(C(=O)Nc2ccccc2)nc1 3.55 µM [activator, partial curve]
Cc1cc(Cl)ccc1OCC(=O)Nc1ccccc1N1CCOCC1 4.47 µM [activator, single point]
Cc1nc2ccccc2nc(=O)c1NNc1ccccc1 3.98 µM [activator, partial curve]
Oc1ccc2ccccc2c1N=Nc1ccccn1 1.26 µM [activator, single point]
Cc1cc(C(=O)Nc2ccccc2)oc(=O)c1 3.55 µM [activator, partial curve]
O=C(ONc1ccc(N=NC(=O)c2ccccc2O)cc1)c1ccccc1 2.82 µM [activator, partial curve]
Cn1c(SCC(=O)c2ccc(F)cc2)nnc1-c1cnccn1 4.47 µM [activator, partial curve]
COc1ccc(C(=O)/C=C/c2ccc(OC)cc2OC)c(O)c1 4.47 µM [activator, single point]
COc1ccc(-n2cnc3cc(NCc4ccco4)ccc32)cc1 2.82 µM [activator, partial curve]
C=C(C)CSc1nnc(-c2ccc(C)cc2)n1N 3.16 µM [activator, single point]
CCN(C(=O)COC(=O)c1ccc(C=O)cc1)c1c(N)n(Cc2ccccc2)c(=O)[nH]c1=O 3.98 µM [activator, single point]
Cc1ccc(-c2ccc(SCC(=O)c3ccccc3)nn2)cc1 3.16 µM [activator, partial curve]
Cc1ccc(CCNC(=O)C2CCC(=O)N(Cc3ccccc3F)C2)o1 (configuration not stated) 5.62 µM [activator, single point]
CC(C)COc1ccc(/C=C2/Sc3ccccc3C2=O)cc1 3.98 µM [activator, partial curve]
Cc1ccc(CNC(=O)Nc2cccc(C)c2)cc1 3.55 µM [activator, partial curve]
CN(C)C(=O)CSc1nnc(C23CC4CC(CC(C4)C2)C3)o1 2.82 µM [activator, partial curve]
NS(=O)(=O)c1ccc2nc(NC(=O)c3ccc(Br)o3)sc2c1 3.55 µM [activator, partial curve]
CCOC(=O)c1c(-c2ccccc2)nc2cc(C)ccn12 3.16 µM [activator, partial curve]
Nc1[nH]nc2c1NN(c1ccc(Cl)cc1Cl)N2 5.62 µM [activator, single point]
Brc1ccc(-c2csc(-c3c[nH]c4ccccc34)n2)cc1 5.62 µM [activator, single point]
CSc1ncc(C(=O)Nc2ccc(C(C)=O)cc2)c(C)n1 3.16 µM [activator, partial curve]
COc1ccccc1-c1nnc(NC(=O)C(C)C)s1 3.55 µM [activator, single point]
CC(=O)c1ccc(OCc2cc(C(=O)N(C)Cc3ccccn3)no2)cc1 5.62 µM [activator, single point]
COC(=O)c1ccc(CSC2=NCCS2)cc1 2.51 µM [activator, partial curve]
Cc1cc(-c2nc3cccnc3s2)ccc1NS(=O)(=O)c1cccs1 2.51 µM [activator, partial curve]
O=C1CCCC/C1=C\Nc1ccc(Cl)cn1 5.62 µM [activator, single point]
Cn1c(C(=O)Nc2ccccc2)cc2sccc21 3.16 µM [activator, single point]
O=C(O)c1cccc(NC(=O)c2ccc(COc3ccc(Cl)cc3)cc2)c1 6.31 µM [activator, single point]
COc1ccccc1N1CCN(c2nc(C)cc(C)c2C#N)CC1 1.26 µM [activator, partial curve]
O=C(COC(=O)C1CC1)c1c[nH]c2ccccc12 5.62 µM [activator, single point]
O=C(Nc1ccc([N+](=O)[O-])cn1)c1ccc2c(c1)OCO2 1.58 µM [activator, partial curve]
COc1ccc2nc(/C=N/NC(=O)[C@@H]3CCCN3C(=O)OC(C)(C)C)ccc2c1 3.98 µM [activator, partial curve]
Cc1cc(N/C=C/C(=O)c2ccccc2)ccc1Br 4.47 µM [activator, single point]

Potency, active:
Clc1ccc(-c2nc3n(n2)Cc2ccccc2-3)cc1 3.16 µM
COC(=O)C(C)N1C(=O)S/C(=C\c2ccc(-c3ccc(C(=O)O)cc3C)o2)C1=O (configuration not stated) 2.82 µM
Cc1ccnc(NC(=O)Nc2ccc3c(c2)OCO3)c1 0.631 µM
Cc1cc2nc(-c3cccnc3SCC(=O)NCc3ccco3)[nH]c2cc1C 3.98 µM
COc1ccc(/C(C)=N/Nc2ccc(C(=O)O)cc2)cc1OC 0.631 µM
CCN(CC)c1ccc(NC(=O)Nc2ccccc2)cc1 0.891 µM
NC(=O)C1CCN(c2nc(-c3ccccc3F)cs2)CC1 0.794 µM
Oc1ccc(-c2csc(-c3c[nH]c4ccccc34)n2)c(O)c1 3.55 µM
O=C(Nc1nc2ccccc2s1)c1cnccn1 1.12 µM
O=C(CSc1ccccc1)Nc1ccc(N2CCOCC2)c(F)c1 3.55 µM
O=C(O)c1cccc(N/N=C/C2=C(Cl)c3cc(Cl)ccc3SC2)c1 0.316 µM
CC(=O)c1sc(NC(=O)c2ccccc2F)nc1-c1ccccc1 2.24 µM
O=C(NC1CCCC1)c1n[nH]c2ccccc12 3.16 µM
COc1cccc(NC(=O)c2cccc(Cl)c2)c1 2.51 µM

activation, inactive:
COc1ccc(/C=C/C(=O)O)cc1S(=O)(=O)N1CCCC1 -7.1%
Nc1nccc(/C=C/c2c(F)cccc2Cl)n1 22.8%
O=C(Nc1cccc2nsnc12)c1ccc(F)cc1 5.98%
CCCCCCC1CCC(c2nc(-c3ccncc3)no2)CC1 (configuration not stated) -0.272%
Cc1cc(C)cc(NC(=O)COC(=O)CCCNC(=O)c2ccc(Cl)cc2)c1 -0.161%
CSc1nnc2c3ccccc3n(CCc3ccccc3)c2n1 -3.7%
O=C(CSc1n[nH]c(-c2ccncc2)n1)Nc1ccc(Cl)c(C(=O)O)c1 1.71%
CN(C)CCCN(C(=O)c1ccc(C(=O)c2ccccc2)cc1)c1nc2cc3c(cc2s1)OCCO3 2.23%
CC(=O)c1cccc(NC(=O)CCc2nnc3ccc(NCc4ccc5c(c4)OCO5)nn23)c1 -5.5%
COc1c(F)c(F)c(C(=O)O)c(Nc2ccc(C)cc2)c1F 1.79%
CC(=O)c1cc2c(cc1NC(=O)Cc1ccsc1)OCO2 -2.48%
Cc1c(N=Cc2ccc(Cl)o2)c(=O)n(-c2ccccc2)n1C 0.513%
O=C(Cn1nnc(-c2ccccc2)n1)c1ccccc1 11.1%
COc1ccc(/C=C2\Oc3cc(OCC(=O)N4CCC[C@H]4CO)ccc3C2=O)c(OC)c1 -4.15%
COc1ccc(NC(=O)CCC(=O)c2cc(C)sc2C)cc1 2.51%
